# Laboratory results from PubChem BioAssay AID1745853 (National Center for Advancing Translational Sciences (NCATS), 2022).
# Some of the results follow. The main result of the screen is listed elsewhere. These columns were measured beside it and carry no call.
# Experiments:
# Experiment in all cases: Primary Screen for Target Class Profiling of Small Molecule Inhibitors of Methyltransferases
# [1] = biological target: Glycine N-methyltransferase (Homo sapiens) (UniProt Q14749); conditions: purified enzyme, MTase-Glo SAH luminescence; measured here: GNMT inhibition; at 40 µM; stronger effect = lower value
# Procedure, shortened: (§1)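 Each enzyme was reacted with SAM and its substrate, with compounds tested once at 40 uM; SAH formed was read by MTase-Glo luminescence.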
# [2] = biological target: Guanidinoacetate N-methyltransferase (Homo sapiens) (UniProt Q14353); conditions: purified enzyme, MTase-Glo SAH luminescence; measured here: GAMT inhibition; at 40 µM; stronger effect = lower value
# Procedure, shortened: as §1
# [3] = biological target: Histamine N-methyltransferase (Homo sapiens) (UniProt P50135); conditions: purified enzyme, MTase-Glo SAH luminescence; measured here: HNMT inhibition; at 40 µM; stronger effect = lower value
# Procedure, shortened: as §1
# [4] = biological target: Nicotinamide N-methyltransferase (Homo sapiens) (UniProt P40261); conditions: purified enzyme, MTase-Glo SAH luminescence; measured here: NNMT inhibition; at 40 µM; stronger effect = lower value
# Procedure, shortened: as §1
# [5] = biological target: Phenylethanolamine N-methyltransferase (Homo sapiens) (UniProt P11086); conditions: purified enzyme, MTase-Glo SAH luminescence; measured here: PNMT inhibition; at 40 µM; stronger effect = lower value
# Procedure, shortened: as §1
# % is scaled to controls: 0 for no effect and ±100 for the full control effect.
SMILES,"activity change, negative = inhibition [1] [%]","activity change, negative = inhibition [2] [%]","activity change, negative = inhibition [3] [%]","activity change, negative = inhibition [4] [%]","activity change, negative = inhibition [5] [%]"
CC1CCN(S(=O)(=O)c2ccc3c(ccn3CCC(=O)N3CCc4ccccc43)c2)CC1,-0.978,-1.53,-1.9,-8.62,-6.37
NC(=NCc1ccccc1)NC(=O)c1nc(Cl)c(N)nc1N,-11.3,-0.146,-9.1,-10.7,-1.53
COc1ccc(N2CCN(C(=O)c3ccc(Nc4nc5ccccc5n5nnnc45)cc3)CC2)cc1,-15.8,2.14,-6.31,-3.45,-6.11
COc1ccc([C@@H]2OC[C@H]3[C@@H]2CO[C@@H]3c2ccc(OC3OC(CO)C(O)C(O)C3O)c(OC)c2)cc1OC (stereo partly drawn),2.9,3.8,6.92,-9.09,-1.38
COc1cc(O)c([C@@H](CC(=O)N2CC(C)CC(C)C2)c2ccc3c(c2)OCO3)c(OC)c1 (stereo partly drawn),2.29,2.77,7.37,-44.7,-1.16
C/C=C/C1=CC2=C(CO1)C(=O)C(C)(OC(=O)c1c(C)cc(O)cc1OC)C(O)C2 (stereo not drawn),1.13,6.58,12.5,-2.35,5.77
CCCn1c(=O)c2ccc(C(=O)NC(C)CC)cc2n2c(SCC(=O)Nc3cccc(C)c3)nnc12 (stereo not drawn),7.33,0,12.9,7.26,6.75
COc1ccccc1NC(=O)Cn1nc2n(Cc3ccc(F)cc3)c(=O)c3ccccc3n2c1=O,-0.148,5.52,1.97,-0.127,-1.91
CC1=CC(=O)OC(C)(CC(C)(O)C(=O)O)C1 (stereo not drawn),3.38,-3.91,4.48,-13.5,-0.453
CCCc1nc(C(=O)NC(CC)c2ccc(S(C)(=O)=O)cc2)cs1 (stereo not drawn),-1.6,-2.82,0.033,-7.89,-3.56
Nc1nc(N)c2nc(CNc3ccc(C(=O)NC(CCC(=O)O)C(=O)O)cc3)cnc2n1 (stereo not drawn),-13.3,8.5,3.76,-7.99,2.6
O=C(c1ccco1)N1CCCCC1c1nc(C2CC2)n[nH]1 (stereo not drawn),-4.53,-10.4,-3.19,-13.7,-11.1
CCCn1c(=O)c2ccc(C(=O)NC(C)C)cc2n2c(=O)n(CC(=O)Nc3ccc(Cl)cc3)nc12,5.54,0,5.71,-1.53,3.54
CC1(C(=O)NC2CCCCCCC2)Cn2c(ccc2-c2ccccc2)C(=O)N1Cc1ccccc1F (stereo not drawn),2.63,0,5.99,3.13,2.37
CNCCN1CCC(c2cc(CN(C)C(=O)c3cccc(Oc4ccccc4)c3)ccn2)CC1,4.91,10.5,-0.772,-8.56,3.76
COc1ccc(-c2cc(-c3ccc4c(c3)NC(=O)CO4)nc3c2COc2ccc(C)cc2-3)cc1,,-21.9,,-25.5,-1.45
CC(C)(O)/C=C/C(=O)[C@](C)(O)[C@H]1[C@H](O)C[C@@]2(C)[C@@H]3CC=C4[C@@H](C=C(O[C@@H]5O[C@H](CO)[C@@H](O)[C@H](O)[C@H]5O)C(=O)C4(C)C)[C@]3(C)C(=O)C[C@]12C,0,-9.63,-2.67,-18.5,-1.04
